Data: ChEMBL document CHEMBL4888484, “Replenishing the malaria drug discovery pipeline: Screening and hit evaluation of the MMV Hit Generation Library 1 (HGL1) against asexual blood stage Plasmodium falciparum ,using a nano luciferase reporter read-out” (2022)
In all, about 150,000 compounds went through this assay and about 540 (0.36%) showed an effect of 50% or more. The list shows a part of the results.

test system: Plasmodium falciparum; assay: Primary screen in NF54 nanoGlo assay, in single point, at 2uM, 72h; a lower Z score goes with more inhibition; assay type: functional, Erythrocyte; conditions: timepoint 72 hour

Compound	% Inhibition [%]	Z score
C[C@@H](CCNC(=O)CC1CCN(S(=O)(=O)c2ccccc2)CC1)N1CCCCCC1	-6	1.05
Cc1nn(C)c(C)c1C1OCCC1CNCc1cccs1 (stereo not given)	-3	0.36
COc1ccc2c(=O)n(C[C@H]3COCCO3)ccc2c1OC	-6	0.63
Cc1nccn1-c1ccnc(C(=O)N2CCN(C)C[C@@H]2C)c1	2	-0.15
CN1C(=O)N[C@@H]2CN(c3ncc(Cl)cc3Br)CC[C@@H]21	-14	1.91
CN(Cc1ccccc1)[C@H]1CCCN(C(=O)c2ccc3c(c2)no[n+]3[O-])C1	-12	1.66
Cn1nc(CC(C)(C)C)cc1NC(=O)c1ccc(N2CCCC2)nc1	-15	2.2
Cc1nn(-c2ccc(F)cc2)c2nc(N3CCCN(C(=O)[C@H](C)c4ccccc4)CC3)sc12	-15	1.67
O=C(CCc1cccc(Cl)c1)N1CC[C@H](Oc2cccnn2)C1	-13	1.54
CN(C)S(=O)(=O)c1ccc(C(=O)N2Cc3cncnc3C2)cc1	-5	0.7
COc1ccccc1C(NC(=O)N1CCCC1CCO)c1ccccc1Cl (stereo not given)	-2	0.49
Cc1n[nH]cc1CNc1cnc2ccccc2c1	1	-0.16
Cn1nccc1CNCc1ccc(Oc2ccccc2)o1	-8	1.02
CS(=O)(=O)NCCC(=O)N[C@H]1CC[C@@H](C(=O)NCc2ccccc2F)C1	-6	0.81
O=C1C[C@H](N2CCN(Cc3ccc4c(c3)OCO4)CC2)C(=O)N1C1CC1	3	-0.43
Cc1nnnn1-c1ccc(C(=O)N[C@H]2CCCOC2)c(F)c1	3	-0.56
CC[C@H](NC(=O)c1[nH]nnc1-c1ccc(F)cc1)c1cccs1	-4	0.69
Cc1noc([C@H]2CCCN(C(=O)c3ncccc3OCC(F)(F)F)C2)n1	-6	0.97
CCS(=O)(=O)NC[C@H](C)NCc1cccc(CO)c1	-11	1.34
CN1CCN(Cc2ccc3c4c(cccc24)C(=O)OC3)C[C@H]1c1ccccc1	-7	1.25
O=C(NC[C@@H](c1ccco1)N1CCCC1)c1ccc(Br)o1	-1	0.17
C[C@@H](Cc1nc(-c2cc(Cl)sc2Cl)cs1)n1cc(Cl)cn1	-8	0.87

Compound	% Inhibition [%]	Z score
Cc1cc(C)cc(CCC(=O)NCc2nccc(N)n2)c1	-6	0.7
CCC1CN(C(=O)NC2CCCCC2CC)CC(C)O1 (stereo not given)	-10	1.54
CC1(C)CO[C@H](c2cccc(Cl)c2)CN1C(=O)CN1CCC(=O)NC1=O	-9	1.53
Cc1ccsc1CN(Cc1ccc(F)cc1)C(=O)CN(C[C@H]1CCCO1)C(=O)Nc1ccc(Cl)cc1	-10	1.26
CC1CCCN(C(C)CNC(=O)CCNC(=O)C2CC2C)C1 (stereo not given)	-5	0.79
CCN1[C@H](c2ccc(Br)cc2)CCS1(=O)=O	-7	1.32
COCCO[C@H]1CN(C2CCN(C(=O)c3cc(C)nn3C)CC2)C12CCCCC2	-10	1.85
Cc1ccc(-c2nc(C)c(C(=O)NC[C@H](C)N3CCc4ccccc43)s2)o1	-13	2.53
COc1cc(NC(=O)COc2ccccc2F)ccc1N1CCCCC1=O	-16	2.52
Cc1ccc(Cc2nc(CCCNC(=O)OC(C)(C)C)no2)cn1	-15	2.59
Cc1c(S(=O)(=O)N2CCC(C)CC2)c(C)n(C)c1C(=O)N1CCOCC1	-16	2.15
O[C@]1(c2ccc(-c3ccccc3)cc2)C[N+]2=C(CCCCC2)N1c1ccc2c(c1)OCO2	-2	0.19
Cc1nccc(-c2ccc(NC(=O)Cc3cccc4ccccc34)cc2)n1	2	-0.22
O=C(NCc1ccccc1)c1cc(-c2cccc(F)c2)ns1	-3	0.36
C[C@H](NC(=O)Nc1cccc2c1OC(C)(C)C2)c1nccs1	-8	1.03
Cc1cc(Br)c(N)cc1F	-15	1.72
CCN1Cc2nc(OC)c(CNC(=O)c3cc(C)n[nH]3)cc2C1=O	6	-0.76
CC(=O)N[C@H]1CN(C(=O)CCc2c(C)n[nH]c2C)C[C@@H]1c1ccc(C)cc1	-6	1.09
CN(c1nc2c(cnn2C)c(=O)[nH]1)C1CCCC1c1ccc(C(F)(F)F)cc1 (stereo not given)	36	-1.07
O=C(NC1CCC1)c1ccc(S(=O)(=O)NCc2ccncc2)cc1	-9	1.37
CCCC[C@H]1C(=O)N(C)CCN1C(=O)c1cnn2ccccc12	-8	0.7
C[C@@H]([C@H](O)c1ccc(O)cc1)n1ccnc1-c1coc(-c2ccccc2)n1	-1	0.11

Compound	% Inhibition [%]	Z score
O=C(Nc1ccc(Cl)c(N2CCCS2(=O)=O)c1)c1ccc(Br)o1	11	-1.36
O=C(N[C@@]12COC[C@@H]1C2)c1ccsc1C(F)F	-3	0.34
c1cc(-c2nccn2CCN2CCCCC2)cc(-n2cccn2)c1	-12	2.38
CCc1nc2c(c(OC3CCN(C(=O)NC4CCCC4)CC3)n1)CCOCC2	-1	0.07
COC(=O)c1cc(-c2cccnc2OC)c[nH]1	11	-1.45
Cn1c(Cn2cnc3ccccc32)nnc1-c1ccc(Cl)cc1	-9	0.74
O=C1Nc2ccccc2CC[C@@H]1n1nc(-c2ccco2)ccc1=O	30	-3.38
Cc1cc(C(N)=O)cc(S(=O)(=O)N2CCc3ccc(C(=O)O)cc3CC2)c1	-5	0.69
O=C(NCCc1cccs1)C1CCN(C(=O)c2cnsn2)CC1	8	-1.05
Cc1cccc([C@@H](O)CN2CCC(N3CCCS3(=O)=O)CC2)c1	-8	0.91
COC1CCN(c2nc(C3CCCC3)nc3c2CCNCC3)CC1	-13	1.43
COc1ccc(NC(=O)CCN2CCC[C@H]2c2ccncc2)cc1	4	-0.41
O=S(=O)(NCc1cncc(-c2cccs2)c1)c1cccnc1	-1	0.12
Cc1nsc(N[C@@H](C)C(=O)NC(C)C)n1	-5	1.02
CCc1nnc(N2CC(c3n[nH]c(C)n3)C2)nc1CC	-10	1.58
Cc1cc(C)nc(O[C@H]2CCCN(C(=O)c3scnc3C)C2)n1	-7	1.05
COc1ccc(CNC(=O)N2C3CCC2CC(S(=O)(=O)c2ccccc2)C3)cc1OC (stereo not given)	-10	1.25
O=C(Nc1ccc(N2CCCC2)c2ncccc12)c1cncs1	-11	2.13
Cc1nc(-c2cc(S(=O)(=O)NCc3ccc(C(C)C)cc3)c(C)s2)cs1	16	-1.85
CCc1nnc(CN(C)CC(=O)N2c3ccccc3C[C@@H]2C)o1	8	-1.11
CC1(C)C(NCC2CC(O)CN2Cc2ccccc2)C2CCCOC21 (stereo not given)	1	-0.15
Cc1cnn(C2CN(CC(=O)NCc3ccc4c(c3)OCO4)C2)c1	15	-1.96

Compound	% Inhibition [%]	Z score
COc1ccccc1C(=O)Nc1ccc2c(c1)nc(CN1CCCCCC1)n2C	-5	0.84
Cc1nc(CCN2C(=O)CC3(CCC3)C2=O)cs1	-8	1.31
CC(C)n1ncc(C(=O)N[C@@H](C)COc2ccc(F)cc2F)c1C(F)(F)F	-7	0.73
CC1(NC(=O)c2ccc(O)cc2O)CCC1	3	-0.36
O=C1COc2ccc(S(=O)(=O)N3CCc4[nH]cnc4C3)cc2N1	-21	1.92
CC(C)(C)c1ccc(C(=O)N2CCN=C2N2CCN(c3cccc(Cl)c3)CC2)cc1	-5	0.93
CN(C[C@H]1CCCN2CCCC[C@@H]12)C(=O)C1CCC(Cn2cnnn2)CC1 (stereo not given in full)	3	-0.38
Cc1cc(O)nc(C(=O)Nc2ccc(Oc3ccnc4ccccc34)cc2)c1	-4	0.7
CCn1cnc2c1CCN(C(=O)c1occ3c1CCC3)C2	-16	1.46
CCOc1ncccc1NC(=O)CC(C)(C)C	2	-0.27
Nc1c(Cl)cc(C(=O)N2CCC[C@@H]2Cn2ccnc2)cc1Cl	14	-1.65
CCc1nnc(CN2CC3CCCC3(C(=O)OC)C2)o1 (stereo not given)	-18	2.45
O=C(NC1CC(=O)N(C2CC2c2ccccc2)C1)C1CC1c1ccccc1F (stereo not given)	-7	0.97
CS(=O)(=O)Cc1nc(COc2cccc(-n3ccnc3)c2)cs1	-2	0.17
C[C@@H](c1ccccc1F)N(C)c1ccnc(N(C)C)n1	2	-0.29
Cc1cc(C(=O)N[C@@H](C)CCc2ccc(C)o2)on1	4	-0.56
O=C(c1cccn1C1CC1)N1CCN(c2ccncc2)C[C@@H](O)C1	5	-0.65
CCN1CCN(C(=O)CN2C(=O)COc3ccc(C(=O)COc4ccc(Cl)c(C)c4)cc32)CC1	2	-0.38
N#Cc1ccc(C(=O)N2CC[C@H](Nc3cccnc3)C2)cc1	-7	0.93
